Experimental data from paper PMC9130279, “Vanilloid-dependent TRPV1 opening trajectory from cryoEM ensemble analysis” (Nature Communications, 2022).

Target: the molecule itself
Assay: cryo-EM structure; nanodisc-reconstituted TRPV1 (MSP2N2; POPC:POPE:POPG 3:1:1) with 50 µM RTx, frozen at 4 °C, 25 °C or 48 °C; 20 mM HEPES pH 7.5, 150 mM NaCl; six reconstructions at 3.04-3.45 Å

B1: full-length wild-type Rattus norvegicus (rat) TRPV1 (natural protein)
chain: not shown
notes: TRPV1 (vanilloid receptor 1), rat, full-length wild type, cloned into pEG-BacMam; also called transient receptor vanilloid member 1; vanilloid receptor TRPV1
stoichiometry N: 4
